# Results taken from a collection of fitness landscapes (doi:10.1016/j.celrep.2020.107928).
# The full ranking holds about 81,000 sequences; the median of “one-hybrid fitness for binding NBS DNA” is about -0.1, and the highest 2% start at about 0.36. The list shows a part of the results.
# B1: Caulobacter ParB omega fusion; a variant is named by its letters at X, in order, B8GW30 (parent)
# chain: MESVVVGEPGMSEGRRGLGRGLSALLGEVDAAPAQAPGEQLGGSREAPIEILQRNPDQPRRTFREEDLEDLSNSIREKGVLQPILVRPSPDTAGEYQIVAGERAWRAAQRAGLKTVPIMVRELDDLAVLEIGIIENVQRADLNVLEEALSYKVLMEKFERTQENIAQTIGKSXSHVANXMRLLXLPDEVQSYLVSGELTAXHARAIAAAADPVALAKQIIEGGLSVRETEALARKAPNLSAGKSKGGRPPRVKDTDTQALESDLSSVLGLDVSIDHRGSTGTLTITYATLEQLDDLCNRLTRGI
# Variants of: B1
# Test: one-hybrid fitness for binding NBS DNA (the Noc-binding site; scaled: cognate 1, non-cognate 0); higher = stronger binding
# Details: with NBS DNA site
# Summary of the method: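 Fitness is the rescaled log change in variant-to-wild-type read ratio, measured by Illumina sequencing of plasmids before and after bacterial one-hybrid selection. The scale puts cognate at 1 and non-cognate at 0. Selection of Caulobacter ParB libraries, four specificity codons randomised, took place in E. coli USO with a HIS3 reporter, site 19 bp from the promoter, over 48 hours at 37°C on M9-minus-histidine with 0.1 mM IPTG and 5 mM 3-AT.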
row,Variant,one-hybrid fitness for binding NBS DNA
1,TKTA,≤ 0.2
2,SVYL,≤ 0.2
3,QILR,0.335
4,RSYY,≤ 0.2
5,CNPF,≤ 0.2
6,QITL,≤ 0.2
7,KNLA,≤ 0.2
8,HHHR,≤ 0.2
9,MPAK,≤ 0.2
10,KTSI,≤ 0.2
11,LDVK,≤ 0.2
12,YDTH,≤ 0.2
13,QFRS,0.312
14,RNPW,≤ 0.2
15,SRRV,≤ 0.2
16,WTKR,0.234
17,GTHM,≤ 0.2
18,EIYR,≤ 0.2
19,SYMC,≤ 0.2
20,VAYG,≤ 0.2
21,FQSS,≤ 0.2
22,QKYM,≤ 0.2
23,SRFG,≤ 0.2
24,RTKK,0.304

row,Variant,one-hybrid fitness for binding NBS DNA
1,TRGV,≤ 0.2
2,AWYR,≤ 0.2
3,SWIT,≤ 0.2
4,MWRT,≤ 0.2
5,RCAR,0.529
6,ALHD,≤ 0.2
7,FFPT,≤ 0.2
8,NMRS,≤ 0.2
9,LPPF,≤ 0.2
10,MFES,≤ 0.2
11,HSHE,≤ 0.2
12,LSPS,≤ 0.2
13,ETVR,≤ 0.2
14,FAYR,≤ 0.2
15,TCTI,≤ 0.2
16,LARM,≤ 0.2
17,RSTQ,≤ 0.2
18,RAMV,≤ 0.2
19,EVMR,≤ 0.2
20,VYCE,≤ 0.2
21,DIRD,≤ 0.2
22,KHNH,≤ 0.2
23,RCWP,≤ 0.2
24,YDKG,≤ 0.2

row,Variant,one-hybrid fitness for binding NBS DNA
1,CYRF,≤ 0.2
2,TSSK,≤ 0.2
3,THTT,≤ 0.2
4,ECNK,≤ 0.2
5,TYSV,≤ 0.2
6,MTSN,≤ 0.2
7,TKNT,≤ 0.2
8,WLRL,≤ 0.2
9,DVTR,≤ 0.2
10,NYGY,≤ 0.2
11,NAPW,≤ 0.2
12,VTSN,≤ 0.2
13,LAAG,≤ 0.2
14,DSAR,≤ 0.2
15,FAFS,≤ 0.2
16,HDNF,≤ 0.2
17,PHLK,≤ 0.2
18,RRIW,≤ 0.2
19,MNRI,≤ 0.2
20,QEVT,≤ 0.2
21,RYES,≤ 0.2
22,PRTE,≤ 0.2
23,NQFD,≤ 0.2
24,SSVG,≤ 0.2

row,Variant,one-hybrid fitness for binding NBS DNA
1,EAVD,≤ 0.2
2,RILP,≤ 0.2
3,EKPL,≤ 0.2
4,KTQW,≤ 0.2
5,GTPR,≤ 0.2
6,LHWT,≤ 0.2
7,CCNS,≤ 0.2
8,KAEC,≤ 0.2
9,AIGW,≤ 0.2
10,PYQV,≤ 0.2
11,LKKD,≤ 0.2
12,AACC,≤ 0.2
13,QWTS,≤ 0.2
14,TWEC,≤ 0.2
15,LGTD,≤ 0.2
16,EAQR,≤ 0.2
17,SLAI,≤ 0.2
18,DAIK,≤ 0.2
19,IQHG,≤ 0.2
20,QQMN,≤ 0.2
21,SVYF,≤ 0.2
22,HYVR,≤ 0.2
23,TTYD,≤ 0.2
24,PPVE,≤ 0.2

row,Variant,one-hybrid fitness for binding NBS DNA
1,VAWH,≤ 0.2
2,VVSD,≤ 0.2
3,NVKT,≤ 0.2
4,NLNY,≤ 0.2
5,QADE,≤ 0.2
6,HCQS,≤ 0.2
7,FTYS,≤ 0.2
8,YTSS,≤ 0.2
9,YTFC,≤ 0.2
10,EPCR,≤ 0.2
11,SKAC,≤ 0.2
12,QMEK,≤ 0.2
13,QRNS,0.716
14,TTPV,≤ 0.2
15,ATPW,≤ 0.2
16,MALA,≤ 0.2
17,QWNN,≤ 0.2
18,KTVT,≤ 0.2
19,YHAM,≤ 0.2
20,VQYW,≤ 0.2
21,MCHR,≤ 0.2
22,PPPF,≤ 0.2
23,GAET,≤ 0.2
24,NAAA,≤ 0.2

row,Variant,one-hybrid fitness for binding NBS DNA
1,WKLV,≤ 0.2
2,VLIL,≤ 0.2
3,RPDQ,≤ 0.2
4,HHFI,≤ 0.2
5,PPYK,≤ 0.2
6,HHPC,≤ 0.2
7,RQYV,≤ 0.2
8,YAPC,≤ 0.2
9,QQVW,≤ 0.2
10,RWSQ,≤ 0.2
11,HRHF,≤ 0.2
12,GELG,≤ 0.2
13,KQAR,≤ 0.2
14,PFYC,≤ 0.2
15,QHRF,0.284
16,LSGG,≤ 0.2
17,DVDR,≤ 0.2
18,CDES,≤ 0.2
19,PGSM,≤ 0.2
20,QVTR,0.38
21,YHTG,≤ 0.2
22,RHVI,≤ 0.2
23,QRQP,0.222
24,TNFH,≤ 0.2

row,Variant,one-hybrid fitness for binding NBS DNA
1,CAWW,≤ 0.2
2,GGAR,≤ 0.2
3,QKTT,0.56
4,GCRQ,≤ 0.2
5,KHLV,≤ 0.2
6,ILRK,≤ 0.2
7,KLSL,≤ 0.2
8,DDKV,≤ 0.2
9,QHVF,≤ 0.2
10,DYAQ,≤ 0.2
11,DNLD,≤ 0.2
12,VQAA,≤ 0.2
13,LVAH,≤ 0.2
14,KMEW,≤ 0.2
15,EVKS,≤ 0.2
16,GVTN,≤ 0.2
17,SPVQ,≤ 0.2
18,EARS,≤ 0.2
19,ELFT,≤ 0.2
20,YRKE,≤ 0.2
21,EGMI,≤ 0.2
22,RCAN,≤ 0.2
23,FVSG,≤ 0.2
24,THVG,≤ 0.2

row,Variant,one-hybrid fitness for binding NBS DNA
1,LSER,≤ 0.2
2,NPRN,≤ 0.2
3,QNMG,≤ 0.2
4,KDLK,≤ 0.2
5,HMKW,≤ 0.2
6,EQDG,≤ 0.2
7,TGHR,≤ 0.2
8,FRKG,≤ 0.2
9,EFHA,≤ 0.2
10,SVTY,≤ 0.2
11,VIFV,≤ 0.2
12,IKKF,≤ 0.2
13,DKEY,≤ 0.2
14,MNGT,≤ 0.2
15,TFWG,≤ 0.2
16,KCWY,≤ 0.2
17,VHYK,≤ 0.2
18,NGHT,≤ 0.2
19,NPFR,≤ 0.2
20,ILPD,≤ 0.2
21,KRQW,≤ 0.2
22,IDMG,≤ 0.2
23,AYRR,≤ 0.2
24,WPDG,≤ 0.2

row,Variant,one-hybrid fitness for binding NBS DNA
1,MPCS,≤ 0.2
2,SFYL,≤ 0.2
3,WMAV,≤ 0.2
4,FDGR,≤ 0.2
5,SRDG,≤ 0.2
6,HSAI,≤ 0.2
7,MTAC,≤ 0.2
8,SDCW,≤ 0.2
9,TMSI,≤ 0.2
10,SWIC,≤ 0.2
11,RYTI,≤ 0.2
12,WMVT,≤ 0.2
13,SMMH,≤ 0.2
14,NARY,≤ 0.2
15,QWPH,≤ 0.2
16,THPG,≤ 0.2
17,CSML,≤ 0.2
18,TDDV,≤ 0.2
19,LKTG,≤ 0.2
20,TPLV,≤ 0.2
21,RPLL,≤ 0.2
22,PKAN,≤ 0.2
23,RATA,≤ 0.2
24,FRCR,≤ 0.2

row,Variant,one-hybrid fitness for binding NBS DNA
1,LPNG,≤ 0.2
2,GHAG,≤ 0.2
3,ICRY,≤ 0.2
4,HMQT,≤ 0.2
5,RVAK,≤ 0.2
6,DPDT,≤ 0.2
7,NQGL,≤ 0.2
8,HMEF,≤ 0.2
9,IIVR,≤ 0.2
10,DNSR,≤ 0.2
11,RQKQ,0.244
12,IYPR,0.301
13,QNWF,≤ 0.2
14,VQAE,≤ 0.2
15,MYAS,≤ 0.2
16,RMWP,≤ 0.2
17,KRRG,≤ 0.2
18,KVTK,≤ 0.2
19,VADG,≤ 0.2
20,TAQM,≤ 0.2
21,RFRE,≤ 0.2
22,GTCA,≤ 0.2
23,QCQA,0.372
24,EDNT,≤ 0.2

row,Variant,one-hybrid fitness for binding NBS DNA
1,ATND,≤ 0.2
2,YNTG,≤ 0.2
3,MTWW,≤ 0.2
4,QTQP,≤ 0.2
5,VGDR,≤ 0.2
6,AWSG,≤ 0.2
7,VIAT,≤ 0.2
8,TRHV,≤ 0.2
9,PAQY,≤ 0.2
10,WTFS,≤ 0.2
11,GSPE,≤ 0.2
12,DSSK,≤ 0.2
13,YEHC,≤ 0.2
14,TYKA,≤ 0.2
15,PHHL,≤ 0.2
16,MQMG,≤ 0.2
17,LKHR,≤ 0.2
18,HRSA,≤ 0.2
19,CMLN,≤ 0.2
20,SGRK,≤ 0.2
21,CTQN,≤ 0.2
22,TLGE,≤ 0.2
23,ALSF,≤ 0.2
24,PHFG,≤ 0.2

row,Variant,one-hybrid fitness for binding NBS DNA
1,VTMQ,≤ 0.2
2,YWLS,≤ 0.2
3,QQMS,0.368
4,HLHN,≤ 0.2
5,YKSD,≤ 0.2
6,HIYC,≤ 0.2
7,ASME,≤ 0.2
8,MWTV,≤ 0.2
9,EIGN,≤ 0.2
10,TTAN,≤ 0.2
11,YRAI,≤ 0.2
12,ISSL,≤ 0.2
13,PDYE,≤ 0.2
14,ETLW,≤ 0.2
15,YNIY,≤ 0.2
16,ALTM,≤ 0.2
17,GHHS,≤ 0.2
18,RMEN,≤ 0.2
19,QSVG,≤ 0.2
20,SPSK,≤ 0.2
21,DRDC,≤ 0.2
22,RTFE,≤ 0.2
23,KTRV,≤ 0.2
24,HAYF,≤ 0.2

row,Variant,one-hybrid fitness for binding NBS DNA
1,FKPR,≤ 0.2
2,YGDI,≤ 0.2
3,WLLG,≤ 0.2
4,MRDV,≤ 0.2
5,AGMS,≤ 0.2
6,MGPT,≤ 0.2
7,WTVR,≤ 0.2
8,HYAS,≤ 0.2
9,FSEM,≤ 0.2
10,SRPM,≤ 0.2
11,KRVG,≤ 0.2
12,SYQC,≤ 0.2
13,KCRD,≤ 0.2
14,LMAI,≤ 0.2
15,PQRN,≤ 0.2
16,QRRQ,0.496
17,RKSC,0.273
18,ITDY,≤ 0.2
